# Source: publication PMC2180168 (BMC Pharmacology, 2007)
# Tested on: SCLC6 small cell lung cancer xenografted in nude mice
# Experiment: SCLC6 xenograft tumor growth in nude mice
# Format: in vivo
# Conditions: SCLC6-bearing nude mice; etoposide 12 mg/kg ip days 1-3, with or without STI571 70 mg/kg ip days 1-3 and fluconazole 40 mg/kg/d ip days 1-3; started day +6 after transplantation; etoposide vs control, combinations vs etoposide
smiles,measurement,value
COc1cc([C@@H]2c3cc4c(cc3[C@@H](O[C@@H]3O[C@@H]5CO[C@@H](C)O[C@H]5[C@H](O)[C@H]3O)[C@H]3COC(=O)[C@H]23)OCO4)cc(OC)c1O [etoposide],inhibition of SCLC6 tumor growth (relative tumor volume),brief but non-significant inhibition
